Measured values published in the supplement of paper PMC4166925.
± gives the standard deviation of the averaged measurements. In all, about 33,000 sequences were measured (“E-score (dimensionless, -0.5 to 0.5)”: median about -0.046, highest 2% from about 0.36 on). This is one part of the list.

These sequences were tested on T1, SpTbr T-box DNA-binding domain (GST fusion) (assay: PBM E-score of 8-mer (E-score (dimensionless, -0.5 to 0.5)); Tbr is Tbrain of the sea star Patiria miniata (Pm) or the sea urchin Strongylocentrotus purpuratus (Sp); higher = stronger binding preference; most listed sequences are background and not binding sites). Details: the construct has about 5 more residues each side.
T1 sequence: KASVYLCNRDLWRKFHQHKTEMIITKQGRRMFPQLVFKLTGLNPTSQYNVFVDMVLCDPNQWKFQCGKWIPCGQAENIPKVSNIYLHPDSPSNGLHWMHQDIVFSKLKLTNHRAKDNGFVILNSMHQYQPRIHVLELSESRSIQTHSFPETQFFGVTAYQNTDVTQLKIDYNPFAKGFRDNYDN
Procedure, shortened: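 Universal Agilent oligonucleotide arrays, made double-stranded by primer extension, were incubated with 200 nM GST-fused Tbr T-box DNA-binding domain in PBS (pH 7.5). The protein was expressed in BL21 E. coli at 20 °C and purified by glutathione affinity chromatography. After scanning and quantification, the Universal PBM Analysis Suite assigned an enrichment E-score to each ungapped 8-mer, averaged over duplicate arrays.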

Sequence | PBM E-score of 8-mer
GATCATGA | -0.161 ± 0.012
CTCATCAC | 0.238 ± 0.031
AATGTGCT | 0.13 ± 0.054
TCCGGTCA | 0.0538 ± 0.015
ACGCTTTC | 0.105 ± 0.012
CTGGCATC | -0.059 ± 0.0047
AGGGCCTA | -0.283 ± 0.053
AATCCGCA | 0.0155 ± 0.0028
AAGGTATC | 0.063 ± 0.032
CTGGCGTA | -0.0113 ± 0.021
CTATGGTC | -0.162 ± 0.013
ATCGGGTG | 0.176 ± 0.035
CTGCCCCA | 0.0148 ± 0.061
ATACACGC | 0.0637 ± 0.049
GAAACTAA | 0.0489 ± 0.052
GCTATGAA | -0.259 ± 0.0066
AACACAAT | 0.183 ± 0.018
ATTGTACG | 0.0167 ± 0.03
GTCCAGTA | -0.25 ± 0.006
CACTACTG | 0.0811 ± 0.066
GAAGGCCA | -0.1674 ± 0.0011
AATAACAA | 0.0974 ± 0.1

Sequence | PBM E-score of 8-mer
CCAAGCCA | -0.264 ± 0.0072
AAGAAAAG | -0.304 ± 0.018
TCGTACAA | -0.071 ± 0.046
GGGGCGTA | -0.0823 ± 0.049
CACTACCG | 0.157 ± 0.017
CCGGCTGA | -0.175 ± 0.06
ACTTTGTC | 0.206 ± 0.0032
CCAGCTCA | 0.0203 ± 0.044
CCCAGATA | -0.114 ± 0.0093
ATTGACCG | -0.2 ± 0.011
ATCTTATA | -0.142 ± 0.01
ACCATTCA | 0.0676 ± 0.0009
CAACGCGG | 0.116 ± 0.017
ACAGCCGC | 0.0983 ± 0.015
TCGACACA | 0.315 ± 0.032
ATAGAGTA | -0.143 ± 0.084
ACAAGCCG | 0.0757 ± 0.024
GAACACGA | 0.134 ± 0.011
GGTTCAAC | -0.191 ± 0.03
AAGATAGT | -0.0458 ± 0.032
GTCGGGAA | -0.0482 ± 0.12
CCCCCGTA | -0.118 ± 0.0072

Sequence | PBM E-score of 8-mer
CTACTGAA | -0.0616 ± 0.096
TACTTCAA | -0.268 ± 0.072
CGGGCAAG | -0.14 ± 0.014
CCTACCTC | -0.0944 ± 0.045
CTATATTA | 0.0961 ± 0.071
ATGACCCA | 0.0214 ± 0.029
CCCATAGC | -0.0872 ± 0.052
CCAAATTC | 0.0501 ± 0.069
ATTGTAGG | -0.0404 ± 0.012
CCCTGGAG | -0.163 ± 0.028
AGGGGACA | -0.0306 ± 0.072
ATACGTAC | -0.106 ± 0.049
ATTACAGA | -0.129 ± 0.08
AAGAAGTG | 0.215 ± 0.037
CGTTCATC | -0.124 ± 0.027
CAAGGTAC | -0.00393 ± 0.044
CATGTCTC | -0.122 ± 0.052
CAACGTAA | -0.126 ± 0.083
ATAATTGC | -0.0597 ± 0.05
CGATAAGA | 0.0897 ± 0.13
CGTCTGAG | -0.143 ± 0.043
GGTGGCAA | 0.4 ± 0.011

Sequence | PBM E-score of 8-mer
AGAGTTGG | -0.0633 ± 0.02
ACTTCACC | 0.111 ± 0.026
AGCTTATA | -0.145 ± 0.034
CCCTGAGC | -0.067 ± 0.045
CATTGGAA | -0.0666 ± 0.03
ACCATCAG | 0.13 ± 0.018
CGGGGGAC | -0.117 ± 0.088
CAAAGTAG | -0.0627 ± 0.067
AATCTCCA | -0.0617 ± 0.0052
ACTATAGG | -0.0444 ± 0.017
GACTTCTA | -0.0712 ± 0.036
AGGCAGAC | -0.227 ± 0.0024
ACTCGACT | -0.0975 ± 0.099
GAGCCCAC | -0.0561 ± 0.063
CCTGAACA | 0.0575 ± 0.025
ACGGTGGA | -0.246 ± 0.047
CCTAAGTC | -0.0819 ± 0.023
AGTGAAAT | 0.168 ± 0.083
CTGGCCTC | -0.1768 ± 0.00059
CCTCTAAG | 0.0434 ± 0.088
